PubChem BioAssay AID1745853 (National Center for Advancing Translational Sciences (NCATS), 2022)
The other results are listed elsewhere or left out. These are further read-outs of the screen, such as a control signal, another cell line or another target. No call is given for them.

What was measured:
Assay in all cases: Primary Screen for Target Class Profiling of Small Molecule Inhibitors of Methyltransferases
[1] = molecular target: Glycine N-methyltransferase (Homo sapiens) (UniProt Q14749); conditions: purified enzyme, MTase-Glo SAH luminescence; measured here: GNMT inhibition; at 40 µM; stronger effect = lower value
Procedure, shortened: (§1)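 Each enzyme was reacted with SAM and its substrate, with compounds tested once at 40 uM; SAH formed was read by MTase-Glo luminescence.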

[2] = molecular target: Guanidinoacetate N-methyltransferase (Homo sapiens) (UniProt Q14353); conditions: purified enzyme, MTase-Glo SAH luminescence; measured here: GAMT inhibition; at 40 µM; stronger effect = lower value
Procedure, shortened: as §1

[3] = molecular target: Histamine N-methyltransferase (Homo sapiens) (UniProt P50135); conditions: purified enzyme, MTase-Glo SAH luminescence; measured here: HNMT inhibition; at 40 µM; stronger effect = lower value
Procedure, shortened: as §1

[4] = molecular target: Nicotinamide N-methyltransferase (Homo sapiens) (UniProt P40261); conditions: purified enzyme, MTase-Glo SAH luminescence; measured here: NNMT inhibition; at 40 µM; stronger effect = lower value
Procedure, shortened: as §1

[5] = molecular target: Phenylethanolamine N-methyltransferase (Homo sapiens) (UniProt P11086); conditions: purified enzyme, MTase-Glo SAH luminescence; measured here: PNMT inhibition; at 40 µM; stronger effect = lower value
Procedure, shortened: as §1
% is set by controls: 0 for no effect and ±100 for the full control effect.

Row | SMILES | activity change, negative = inhibition [1] | activity change, negative = inhibition [2] | activity change, negative = inhibition [3] | activity change, negative = inhibition [4] | activity change, negative = inhibition [5]
1 | Cc1cc(-c2cnc(Nc3ccc(F)cc3)c3c2CCO3)ccn1 | -14.7% | 2.37% | -11.8% | -16.2% | -13.6%
2 | CS(=O)(=O)N1Cc2ccccc2CC2(CCCN2Cc2cccnc2)C1 (stereo not given) | -6.73% | -8.21% | -2.97% | -11.4% | -1.45%
3 | CC(C)c1cc2c(N3CCN(C4=NCC(C)(C)S4)CC3)ncnc2s1 | -5.32% | 2.49% | -35.4% | -69% | -4.61%
4 | CCN1C(=O)c2c(C(=O)NCc3ccccc3Cl)ncn2CC1(C)C(=O)NC1CCCC1 (stereo not given) | -5.21% | -11.3% | 3.7% | -6.87% | -10.9%
5 | CC(C)C(C(=O)N(C)C(C)C(N)=O)N(C)C(=O)C1CCCN1C(=O)/C=C/C=C/C(O)C(C)O (stereo not given) | -0.645% | 2.15% | 3.41% | -11% | 2.24%
6 | CC1(C(=O)NC2CCCCC2)Cn2c(nc3ccccc32)C(=O)N1CCc1ccccc1 (stereo not given) | 4.03% | 3.67% | 4.65% | -0.728% | -1.96%
7 | Cc1ccc(NC(=O)CSc2nnc3n(CC(C)C)c(=O)c4ccc(C(=O)NC(C)C)cc4n23)c(C)c1 | 0.423% | 2.33% | 4.77% | -0.947% | -0.478%
8 | C/C=C(/C)C(=O)O[C@@H]1C[C@@H](OC(=O)CC(C)C)C2(C)C3C(=O)C=C(C)C2C3C1(C)C (stereo not given in full) | 0% | 3.4% | 4.12% | -12.2% | 0.996%
9 | O=C(NCCCc1ccccc1)c1ccc2c(=O)nc3c(-c4ccccc4)n[nH]n3c2c1 | -10.4% | 0% | 3.92% | 1.01% | -1.69%
10 | O=C(Cn1c(=O)oc2cc(S(=O)(=O)NC3CCCC3)ccc21)NCc1cccs1 | 2.37% | 3.9% | 4.61% | 5.82% | 1.11%
11 | Cc1ccc(CN2C(=O)c3cc4ccccc4n3CC2(C)C(=O)NCc2ccccc2)o1 (stereo not given) | 4.39% | 1.67% | 5.92% | 6.44% | 3.23%
12 | OC(CN1CCN(c2cccc(Cl)c2)CC1)C(c1ccccc1)c1ccccc1 (stereo not given) | -0.059% | 0.109% | 5.77% | -18.8% | -1.35%
13 | C=C1OC2CC(C(=O)O)C=CC2NC1=O (stereo not given) | 0.18% | -6.94% | 3.91% | -17.9% | -4.76%
14 | Cc1cc(C)cc(OCC(=O)Nc2ccc3c(c2)C(=O)c2ccccc2C3=O)c1 | 0.838% | 0.108% | -3.26% | -2.69% | -5.73%
15 | COc1ccccc1OCCNC(=O)[C@]12CCCC[C@@H]1N(C)C(=O)CC2 | 0.037% | 2.22% | 3.02% | 0.861% | 16.4%
16 | Nc1ccc(CCNc2ncnc3c2ncn3C2OC(CO)C(O)C2O)cc1 (stereo not given) | 14.7% | 71.4% | 0.5% | 26.2% | 0.738%
17 | COc1ccc(C2(C(=O)N3C[C@@H](CO)[C@H](c4ccccn4)C3)CC2)cc1 | -3.19% | -6.1% | -1.1% | -12.1% | -7.39%
18 | CC(C)N1C[C@@H](COCc2ccccc2)[C@H](c2ccccc2)[S+]1(=O)[O-] | -6.29% | -5.36% | -3.3% | -14.2% | -7.17%
19 | COCCN(CCOC)C(=O)[C@@H](C)C1CC[C@@]2(C)CC[C@H](NC(=O)c3cncnc3)[C@@H](C)[C@@H]2[C@H]1O (stereo not given in full) | -1.55% | -1.38% | -0.9% | -0.786% | 3%
20 | CN(C)CCOC(C)(c1ccccc1)c1ccc(Cl)cc1 (stereo not given) | -12.1% | -2.54% | -60.4% | -35.8% | -10.9%
21 | COCCn1ccc2ccc(C(=O)Nc3ccc4c(c3)C(=O)N3CCC[C@H]3C(=O)N4)cc21 | -12.7% | -2.17% | -4.06% | -9.16% | -11.2%
22 | CCc1cc2c(cc1CC)CC(NCC(O)c1ccc(O)c3[nH]c(=O)ccc13)C2 (stereo not given) | 1.86% | 19.6% | -4.1% | -34.8% | -0.591%
23 | C[C@@]1(C(=O)O)CCC[C@@]2(C)C3=CC[C@H]4C[C@@]3(CC[C@H]12)CC4(O)CO (stereo not given in full) | 0% | 6.01% | 7.96% | -7.89% | 6.96%
24 | C/C(=C\c1ccc(C(=O)O)cc1)c1ccc2c(c1)C(C)(C)CCC2(C)C | -1.57% | 5.2% | 0.857% | -11.5% | 5.07%
25 | CN(C)C1CCCN(C(=O)c2csc3c2CCCC3)CC1 (stereo not given) | -1.42% | -2.52% | 0.082% | -3.59% | -13.3%
26 | COC1CC(=O)C23C(=O)NC(CC(C)C)C2C(C)C(C)=CC3/C=C(\C)CCCC1O (stereo not given) | 0% | -10.2% | -1.2% | -21.6% | -2.06%
27 | CC1(C(=O)NC2CCCCCCC2)Cc2ccccc2C(=O)N1Cc1cccs1 (stereo not given) | -5.63% | 3.86% | 2.45% | -11.7% | -5.57%
28 | O=c1c2ccccc2n2c(=O)n(Cc3ccc(F)cc3Cl)nc2n1CCc1ccccc1 | 1.59% | 0% | 9.69% | 5.1% | 3.1%
29 | CN(C)CCNC(=O)c1ccc(-c2nnc3ccc(NC(=O)C4CCC4)cn23)cc1 | -5.26% | -8.68% | -5.74% | -10.6% | -10.8%
